Reference: the supplement of paper PMC10724272
MIC of invasive clinical C. tropicalis isolates, CLSI broth microdilution (fluconazole 0.12-256 mg/L, up to 1,024 for the azole-resistant cluster and its neighbour group; other ranges not stated); higher = less susceptible. Call: susceptible or wild type [S] / resistant or non-wild type [R] by CLSI breakpoints or cut-offs; intermediate and dose-dependent carry no call. '<=' and '>=' at the end values are inferred; the source marks only some of them. Isolates are numbered anew.

How the values were obtained:
Assay in all cases: CLSI broth microdilution.
[1] = compound: CCCCCOc1ccc(-c2cc(-c3ccc(C(=O)N[C@H]4C[C@@H](O)[C@@H](O)NC(=O)[C@@H]5[C@@H](O)[C@@H](C)CN5C(=O)[C@H]([C@H](O)CC(N)=O)NC(=O)[C@H]([C@H](O)[C@@H](O)c5ccc(O)c(OS(=O)(=O)O)c5)NC(=O)[C@@H]5C[C@@H](O)CN5C(=O)[C@H]([C@@H](C)O)NC4=O)cc3)no2)cc1 [micafungin]
[2] = compound: C[C@@H](c1ncncc1F)[C@](O)(Cn1cncn1)c1ccc(F)cc1F [voriconazole]
[3] = compound: C[C@@H]1[C@H](O)[C@@H](C)/C=C/C=C/C=C/C=C/C=C/C=C/C=C/[C@H](O[C@@H]2O[C@H](C)[C@@H](O)[C@H](N)[C@@H]2O)C[C@@H]2O[C@](O)(C[C@@H](O)C[C@@H](O)[C@H](O)CC[C@@H](O)C[C@@H](O)CC(=O)O[C@H]1C)C[C@H](O)[C@H]2C(=O)O [amphotericin B]
[4] = compound: Nc1[nH]c(=O)ncc1F [flucytosine]
[5] = compound: CC[C@@H]([C@H](C)O)n1ncn(-c2ccc(N3CCN(c4ccc(OC[C@@H]5CO[C@@](Cn6cncn6)(c6ccc(F)cc6F)C5)cc4)CC3)cc2)c1=O [posaconazole]
[6] = compound: CCCCCOc1ccc(-c2ccc(-c3ccc(C(=O)N[C@H]4C[C@@H](O)[C@@H](O)NC(=O)[C@@H]5[C@@H](O)[C@@H](C)CN5C(=O)[C@H]([C@@H](C)O)NC(=O)[C@H]([C@H](O)[C@@H](O)c5ccc(O)cc5)NC(=O)[C@@H]5C[C@@H](O)CN5C(=O)[C@H]([C@@H](C)O)NC4=O)cc3)cc2)cc1 [anidulafungin]
[7] = compound: OC(Cn1cncn1)(Cn1cncn1)c1ccc(F)cc1F [fluconazole]
[8] = compound: CCC(C)n1ncn(-c2ccc(N3CCN(c4ccc(OCC5COC(Cn6cncn6)(c6ccc(Cl)cc6Cl)O5)cc4)CC3)cc2)c1=O [itraconazole]
[9] = compound: CC[C@H](C)C[C@H](C)CCCCCCCCC(=O)N[C@H]1C[C@@H](O)[C@@H](NCCN)NC(=O)[C@@H]2[C@@H](O)CCN2C(=O)[C@H]([C@H](O)CCN)NC(=O)[C@H]([C@H](O)[C@@H](O)c2ccc(O)cc2)NC(=O)[C@@H]2C[C@@H](O)CN2C(=O)[C@H]([C@@H](C)O)NC1=O [caspofungin]

Test System: Candida tropicalis isolate 255 (ERG11 copies: 2, Erg11p: no key change)
- MIC [1]: 0.03 mg/L [S]
- MIC [2]: 0.25 µg/mL
- MIC [3]: 1 mg/L [S]
- MIC [4]: ≤ 0.06 mg/L [S]
- MIC [5]: 0.25 mg/L [S]
- MIC [6]: 0.12 mg/L [S]
- MIC [7]: 2 mg/L [S]
- MIC [8]: 0.5 mg/L [S]
- MIC [9]: 0.06 mg/L [S]

Test System: Candida tropicalis isolate 59 (ERG11 copies: 2, Erg11p: no key change)
- MIC [1]: 0.03 mg/L [S]
- MIC [2]: 0.06 mg/L [S]
- MIC [3]: 0.5 mg/L [S]
- MIC [4]: ≤ 0.06 mg/L [S]
- MIC [5]: 0.06 mg/L [S]
- MIC [6]: 0.12 mg/L [S]
- MIC [7]: 2 mg/L [S]
- MIC [8]: 0.06 mg/L [S]
- MIC [9]: 0.06 mg/L [S]

Test System: Candida tropicalis isolate 327 (ERG11 copies: 2, Erg11p: no key change)
- MIC [1]: 0.03 mg/L [S]
- MIC [2]: 0.06 mg/L [S]
- MIC [3]: 1 mg/L [S]
- MIC [4]: ≤ 0.06 mg/L [S]
- MIC [5]: 0.25 mg/L [S]
- MIC [6]: 0.12 mg/L [S]
- MIC [7]: 2 mg/L [S]
- MIC [8]: 0.25 mg/L [S]
- MIC [9]: 0.06 mg/L [S]

Test System: Candida tropicalis isolate 434 (ERG11 copies: 6, Erg11p: Y132F, S154F, P397S (heterozygous))
- MIC [1]: 0.03 mg/L [S]
- MIC [2]: ≥ 8 mg/L [R]
- MIC [3]: 1 mg/L [S]
- MIC [4]: ≤ 0.06 mg/L [S]
- MIC [5]: 0.5 mg/L [R]
- MIC [6]: 0.06 mg/L [S]
- MIC [7]: 256 mg/L [R]
- MIC [8]: 0.5 mg/L [S]
- MIC [9]: 0.03 mg/L [S]

Test System: Candida tropicalis isolate 220 (ERG11 copies: 2, Erg11p: no key change)
- MIC [1]: 0.015 mg/L [S]
- MIC [2]: 0.06 mg/L [S]
- MIC [3]: 1 mg/L [S]
- MIC [4]: ≤ 0.06 mg/L [S]
- MIC [5]: 0.25 mg/L [S]
- MIC [6]: ≤ 0.015 mg/L [S]
- MIC [7]: 1 mg/L [S]
- MIC [8]: 0.25 mg/L [S]
- MIC [9]: 0.03 mg/L [S]

Test System: Candida tropicalis isolate 334 (ERG11 copies: 2, Erg11p: no key change)
- MIC [1]: 0.06 mg/L [S]
- MIC [2]: 0.25 µg/mL
- MIC [3]: 0.5 mg/L [S]
- MIC [4]: ≤ 0.06 mg/L [S]
- MIC [5]: 0.5 mg/L [R]
- MIC [6]: 0.12 mg/L [S]
- MIC [7]: 4 µg/mL
- MIC [8]: 0.5 mg/L [S]
- MIC [9]: 0.06 mg/L [S]

Test System: Candida tropicalis isolate 432 (ERG11 copies: 2, Erg11p: no key change)
- MIC [1]: 0.015 mg/L [S]
- MIC [2]: 0.12 mg/L [S]
- MIC [3]: 0.5 mg/L [S]
- MIC [4]: ≤ 0.06 mg/L [S]
- MIC [5]: 0.12 mg/L [S]
- MIC [6]: 0.03 mg/L [S]
- MIC [7]: 1 mg/L [S]
- MIC [8]: 0.12 mg/L [S]
- MIC [9]: 0.06 mg/L [S]

Test System: Candida tropicalis isolate 358 (ERG11 copies: 2, Erg11p: Y132F, S154F (heterozygous))
- MIC [1]: 0.03 mg/L [S]
- MIC [2]: 4 mg/L [R]
- MIC [3]: 1 mg/L [S]
- MIC [4]: ≤ 0.06 mg/L [S]
- MIC [5]: 1 mg/L [R]
- MIC [6]: 0.06 mg/L [S]
- MIC [7]: 64 mg/L [R]
- MIC [8]: 0.5 mg/L [S]
- MIC [9]: 0.03 mg/L [S]

Test System: Candida tropicalis isolate 221 (ERG11 copies: 2, Erg11p: no key change)
- MIC [1]: 0.03 mg/L [S]
- MIC [2]: 0.25 µg/mL
- MIC [3]: 0.5 mg/L [S]
- MIC [4]: ≤ 0.06 mg/L [S]
- MIC [5]: 0.25 mg/L [S]
- MIC [6]: 0.12 mg/L [S]
- MIC [7]: 4 µg/mL
- MIC [8]: 0.25 mg/L [S]
- MIC [9]: 0.03 mg/L [S]

Test System: Candida tropicalis isolate 377 (ERG11 copies: 8, Erg11p: Y132F, S154F (heterozygous))
- MIC [1]: 0.03 mg/L [S]
- MIC [2]: > 8 mg/L [R]
- MIC [3]: 1 mg/L [S]
- MIC [4]: ≤ 0.06 mg/L [S]
- MIC [5]: 0.5 mg/L [R]
- MIC [6]: 0.03 mg/L [S]
- MIC [7]: 512 mg/L [R]
- MIC [8]: 0.25 mg/L [S]
- MIC [9]: 0.015 mg/L [S]

Test System: Candida tropicalis isolate 244 (ERG11 copies: 2, Erg11p: no key change)
- MIC [1]: 0.03 mg/L [S]
- MIC [2]: 0.12 mg/L [S]
- MIC [3]: 0.5 mg/L [S]
- MIC [4]: ≤ 0.06 mg/L [S]
- MIC [5]: 0.25 mg/L [S]
- MIC [6]: 0.12 mg/L [S]
- MIC [7]: 2 mg/L [S]
- MIC [8]: 0.25 mg/L [S]
- MIC [9]: 0.03 mg/L [S]

Test System: Candida tropicalis isolate 90 (ERG11 copies: 2, Erg11p: no key change)
- MIC [1]: 0.03 mg/L [S]
- MIC [2]: 0.06 mg/L [S]
- MIC [3]: 0.5 mg/L [S]
- MIC [4]: ≤ 0.06 mg/L [S]
- MIC [5]: 0.06 mg/L [S]
- MIC [6]: 0.06 mg/L [S]
- MIC [7]: 1 mg/L [S]
- MIC [8]: 0.12 mg/L [S]
- MIC [9]: 0.03 mg/L [S]

Test System: Candida tropicalis isolate 3 (ERG11 copies: 7, Erg11p: Y132F, S154F (heterozygous))
- MIC [1]: 0.03 mg/L [S]
- MIC [2]: ≥ 8 mg/L [R]
- MIC [3]: 1 mg/L [S]
- MIC [4]: ≤ 0.06 mg/L [S]
- MIC [5]: 1 mg/L [R]
- MIC [6]: 0.03 mg/L [S]
- MIC [7]: 512 mg/L [R]
- MIC [8]: 1 mg/L [R]
- MIC [9]: 0.03 mg/L [S]

Test System: Candida tropicalis isolate 134 (ERG11 copies: 2, Erg11p: no key change)
- MIC [1]: 0.015 mg/L [S]
- MIC [2]: ≤ 0.008 mg/L [S]
- MIC [3]: 0.25 mg/L [S]
- MIC [4]: ≤ 0.06 mg/L [S]
- MIC [5]: 0.03 mg/L [S]
- MIC [6]: 0.06 mg/L [S]
- MIC [7]: 0.5 mg/L [S]
- MIC [8]: 0.06 mg/L [S]
- MIC [9]: 0.06 mg/L [S]

Test System: Candida tropicalis isolate 308 (ERG11 copies: 2, Erg11p: no key change)
- MIC [1]: 0.03 mg/L [S]
- MIC [2]: 0.12 mg/L [S]
- MIC [3]: 1 mg/L [S]
- MIC [4]: ≤ 0.06 mg/L [S]
- MIC [5]: 0.25 mg/L [S]
- MIC [6]: ≤ 0.015 mg/L [S]
- MIC [7]: 2 mg/L [S]
- MIC [8]: 0.25 mg/L [S]
- MIC [9]: 0.03 mg/L [S]

Test System: Candida tropicalis isolate 21 (ERG11 copies: 2, Erg11p: G464S (homozygous))
- MIC [1]: 0.03 mg/L [S]
- MIC [2]: 4 mg/L [R]
- MIC [3]: 0.5 mg/L [S]
- MIC [4]: ≤ 0.06 mg/L [S]
- MIC [5]: 1 mg/L [R]
- MIC [6]: 0.03 mg/L [S]
- MIC [7]: > 256 mg/L [R]
- MIC [8]: 1 mg/L [R]
- MIC [9]: 0.06 mg/L [S]

Test System: Candida tropicalis isolate 28 (ERG11 copies: 2, Erg11p: no key change)
- MIC [1]: 0.015 mg/L [S]
- MIC [2]: 0.12 mg/L [S]
- MIC [3]: 0.5 mg/L [S]
- MIC [4]: ≤ 0.06 mg/L [S]
- MIC [5]: 0.25 mg/L [S]
- MIC [6]: ≤ 0.015 mg/L [S]
- MIC [7]: 2 mg/L [S]
- MIC [8]: 0.25 mg/L [S]
- MIC [9]: 0.03 mg/L [S]
